Some of the results follow.

First the molecules themselves.
B1: chr11:122930308:122930309:-_ENSG00000109971_ENST00000227378|hu_mus|FALSE|FALSE (ssRNA)
RNA: GGGAGUUCUACAGUCCGACGAUCCUUGGGGAUUCUGGUAGAACCACCCACCAAGACAAUAUCAUGGAUCUGUGACUUGUCCAGCUUGGCAUCUCGAAGGGCCUUCUCUACAGGGUCCAGUGUGCCACGGAACAGGUCAGCAUUCAACAGAGGAUUGAGCAUCA
B2: 61429435_61429555_80_3pUTR_ENSG00000104388_ENST00000262646|human|control|control (ssRNA)
RNA: GGGAGUUCUACAGUCCGACGAUCGCCGAACAAUAACAGCCGCCGCGGCGCCUCCGCCCCGCCUCCGCGCCGACCCGGAAGUUCUGCGGCCGCCGGCGCCGCCGGAGGAAAGGGGAGGAGCCCCGCACGCUGGCCCAGCCCUGCCAACAGAGGAUUGAGCAUCA
B3: 63008542_63008662_3152_3pUTR_ENSG00000120063_ENST00000439174|human|control|control (ssRNA)
RNA: GGGAGUUCUACAGUCCGACGAUCCUAGAUGUAGAACUAUUCAAACACGCAUGAAUGAUACCAUGAUACCACGAACAUGCACGAUACCAUGAACUUGCAUCACGGUGCCGGGCUACGUAUGUGUAGCUCAUGGAUUACCAUGGCCAACAGAGGAUUGAGCAUCA
B4: chr11:106643937:106643938:-_ENSMUSG00000020719_ENSMUST00000021062|mus_hu|FALSE|FALSE (ssRNA)
RNA: GGGAGUUCUACAGUCCGACGAUCUAGGUGUAAAGAAAGUGUAUGCUGUGCCUGUUUUGGUACUGCGAGCAGUUCUUCCAAUUCGAUGAAUAUAAUCCUCUGAGGAGUUAGGGUAGUCAUAAUUGAUGACAAAUUUCACAUCUUCAACAGAGGAUUGAGCAUCA
B5: chr7:141450121:141450122:+_ENSG00000106028_ENST00000265304|hu_mus|hu_hu_hu_mus_True|1_38 (ssRNA)
RNA: GGGAGUUCUACAGUCCGACGAUCUCAUCCGUUCUAUGCCUUUUCUUUUGUCUGGUCACUCAGAAAUAUAAUGUUAUCAGCUAUGAUUGUUGUUGCUUGUCGCCUCACAUUGUUUUUAUCCAUGUACUCGCCAUAGUCUAUUUUCAACAGAGGAUUGAGCAUCA
B6: chr6:39351226:39351227:-_ENSMUSG00000029922_ENSMUST00000031985|mus_mus|FALSE|FALSE (ssRNA)
RNA: GGGAGUUCUACAGUCCGACGAUCGACAAAGUUAGAUGUGAUCCGGCAUUCGGGGCAGGACUUUAUGAUCUUGCUCUCAAAUUGUUUAGCACUUCUCCACUUGCGAAUACACUUGAGACAGUAGGUGUGGUUGCAGUUGGAGAGCAACAGAGGAUUGAGCAUCA
B7: chr7:56126341:56126342:+_ENSG00000146731_ENST00000540286|hu_mus|hu_hu_hu_mus_True|68_78 (ssRNA)
RNA: GGGAGUUCUACAGUCCGACGAUCCAUGUUUCUCCUCUUGGCUCUGCGCAGAGCUACUAUGCCUUCUUUUGAAAGAGCAUCUAAGGAAAAGGGGUCAAUCCCCUUUUGAUUAAUAACGACAAAUCCUUUAUCUGAGUCACCACACAACAGAGGAUUGAGCAUCA
B8: 35988352_35989769_1864_CDS_ENSMUSG00000027710_ENSMUST00000011492|mouse|control|control (ssRNA)
RNA: GGGAGUUCUACAGUCCGACGAUCCAGGUUUUCUGGAGCGUUCUUGUCCAGCUGAGACAGGCUGAAGAGAUUCUGGAAAUAAGCUUCCACACAGAACAUGUUGGCCAACAGAACCUCGUGAUCAUGAUUCCUGAGCCCAAUUCUCAACAGAGGAUUGAGCAUCA
B9: chrX:20185780:20185781:-_ENSG00000177189_ENST00000379565|hu_hu|FALSE|FALSE (ssRNA)
RNA: GGGAGUUCUACAGUCCGACGAUCUUUAGUUAUAGUGAACAGGACAGCACUGGCCUCUCGUUCAGAGAAAAAUUUUUGUCUAAGAAUUUUAUCCAGCAAUUCACCUCCUUUCAUAAGUUCUGUUACUACAUACACAUACUUUCCCAACAGAGGAUUGAGCAUCA
B10: chrX:153667120:153667121:+_ENSG00000203879_ENST00000447750|hu_mus|FALSE|FALSE (ssRNA)
RNA: GGGAGUUCUACAGUCCGACGAUCAUUCCAGUCUCGGCCCCGGCCCAUUGAUUCAGGGGGCCCUUCCAGUAUCUGAAAGCGCUUAUAUAGCUCCUCCAGGGGUGUGAUGGAAGAGCUCUCACCCCCAUAGUAGGGGUUUCGGUCCAACAGAGGAUUGAGCAUCA
B11: chr3:120123814:120123815:-_ENSG00000163430_ENST00000295633|hu_mus|FALSE|FALSE (ssRNA)
RNA: GGGAGUUCUACAGUCCGACGAUCCUGCUCCACGAAUUUCAGGAAUUCACUGGAGUCCAGGUGAGAGUCGCCAUUAUCAAAGCUCUUAAAGUACUUGUCUAGGAUCUCACUGUAGUUACUGCCUUUAGAGAACCAGCCAUCUGGCAACAGAGGAUUGAGCAUCA
B12: chr11:46405157:46405158:+_ENSG00000110492_ENST00000395566|hu_hu|hu_hu_hu_mus_False|1_8 (ssRNA)
RNA: GGGAGUUCUACAGUCCGACGAUCCCCUCCCCACUUUGGGCACUUGGUGUGGGCGUGAGAGGACAGGCGUGAUUGACAGAGCUGACAGGAAGACAAAAGGCACUGGUGGGUUAUAUCUUGGGCCUGUGAGAGGGAGGGCGUGGGCAACAGAGGAUUGAGCAUCA
B13: chr16:45143845:45143846:-_ENSMUSG00000022664_ENSMUST00000023344|mus_hu|FALSE|FALSE (ssRNA)
RNA: GGGAGUUCUACAGUCCGACGAUCCACUUAGAUCUCGGAUCCUUUCUUGCCUAGGUGCGUAUUCCGGAACUUGAGGCUUGCUGGCAUUAUAAAUAAAUAUAGAGAGAAGGACUGAUGGGGCUUCCAAGAAAAAUUCCAGGGAGGCAACAGAGGAUUGAGCAUCA
B14: chr16:32019706:32019707:-_ENSMUSG00000022781_ENSMUST00000023467|mus_mus|motif|central (ssRNA)
RNA: GGGAGUUCUACAGUCCGACGAUCCCCUUUCAGUUUAGGCUCUGAACUGAAACACUCCGCACACCAGCCGGUCCUGACUUCGGUAGGAAGCUAAGCAUGUCAAGCUCCUUUCCCAAUGUAAAGAGCUACAUCAAUCAUUUUAUCCAACAGAGGAUUGAGCAUCA
B15: chr17:57724784:57724785:+_ENSG00000141367_ENST00000269122|hu_hu|FALSE|FALSE (ssRNA)
RNA: GGGAGUUCUACAGUCCGACGAUCUUUCAUUUCAAUGUUAAAAAUCUGAAGAGUUUUCCCAGCUUUCAGUGCAAUUACUUUGCUAGCUGGAUUCAUGAUGGCGCUGUCUGCUGAAAUUGGUCUUCGAAUUGGAUUACUUGGGUCCAACAGAGGAUUGAGCAUCA
B16: chr3:176740097:176740098:-_ENSG00000177565_ENST00000430069|hu_mus|hu_hu_hu_mus_True|48_68 (ssRNA)
RNA: GGGAGUUCUACAGUCCGACGAUCUGUUUUGUAUACCACAAAAGGAGGCACUUUCAGUAUCUGCAAAAGGUAUUUAAUCCUAAAACAUACUUACCUAGAGGAUAACUCAGGAAAACAAUCUGUUACACUCUAAGACCUACUCCACAACAGAGGAUUGAGCAUCA
B17: chr11:44378942:44378943:+_ENSMUSG00000019189_ENSMUST00000019333|mus_hu|FALSE|FALSE (ssRNA)
RNA: GGGAGUUCUACAGUCCGACGAUCUUUAAAUUUAUUAAGACAUUCAGCUAUGUCUGUCAGUCUACAUCCAAAUUUGCUACUAAAAAUAAAAUAAAGUCACAUCCCACAUUAGGAAUACCGAGGUCUGAAAAACACUUUUUGAGCCAACAGAGGAUUGAGCAUCA
B18: 88249743_88250314_1579_CDS_ENSMUSG00000026234_ENSMUST00000027438|mouse|control|control (ssRNA)
RNA: GGGAGUUCUACAGUCCGACGAUCUUUCUCUCCAGUAUAGUAGAGUGAAACAGAUCGUCCAUCAAUUUCUGCCCCCUGCUUUUCUUCCAAAUUUUUCUCUGCAUCAGCUUCAGACUUAAAUUCAAUAUAAGCAAUCCCUUUACUCAACAGAGGAUUGAGCAUCA
B19: 11681258_11681378_101_3pUTR_ENSG00000189067_ENST00000571688|human|control|control (ssRNA)
RNA: GGGAGUUCUACAGUCCGACGAUCCUCUACAGACGCGUCCGGACAGACCAAGACACUCUCUGUGCCUUCGGGCAUGUUACCCAUCCUCUCUGAGCUCGGCUUCCUGUCUGCAAAAUGGGCACAAUAGCGGUCCUGUCUCCUAAGCAACAGAGGAUUGAGCAUCA
B20: chr5:95128998:95128999:+_ENSG00000164292_ENST00000379982|hu_hu|FALSE|FALSE (ssRNA)
RNA: GGGAGUUCUACAGUCCGACGAUCCUUUUAAGACCACAGUGGUAGUUUUUUUCCAAAGAGAACUAAUAAACAUAUUAAGCUAUAUGGUAAUUUUUCUAACACCCACAUUGGUUUCGGUCAGAAGAAUUUUACUGGAACCUGGAGCAACAGAGGAUUGAGCAUCA
B21: chr10:33190432:33190433:-_ENSG00000150093_ENST00000302278|hu_hu|motif|central (ssRNA)
RNA: GGGAGUUCUACAGUCCGACGAUCUACAUUUUCAAAACCUGCACAUGAGUAAAACCAUGGCAAUAUUGCCCUAAAGCGGCCGGACUGUGACUAUGGAAAUUGCUACUUUGCAUUCAGUGUUGUGGGAUUUGCACGGGCAGUACUCAACAGAGGAUUGAGCAUCA
B22: chr13:3555642:3555643:+_ENSMUSG00000021218_ENSMUST00000059515|mus_mus|FALSE|FALSE (ssRNA)
RNA: GGGAGUUCUACAGUCCGACGAUCAUCAAACUUCUUAUACACAUCUCUCAUGGAGGUCUUCUUAGGAUCAACACCCUCGAAAGUUCUAGGAUCUUUUUCAUCAAAGUUGGCAACAUAAACCAGGAACUUCCUGAAACGGCGUUUCAACAGAGGAUUGAGCAUCA

The target in the test is T1, UNK ZnF1-3 (human, UniProt Q9C0B0 31-174).
T1 sequence: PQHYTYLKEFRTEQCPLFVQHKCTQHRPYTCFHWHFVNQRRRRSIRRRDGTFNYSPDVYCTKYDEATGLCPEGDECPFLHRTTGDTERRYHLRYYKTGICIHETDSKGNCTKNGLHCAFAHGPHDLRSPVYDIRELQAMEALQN
In words: nsRBNS (natural sequence RNA bind-n-seq); RBNS binding buffer (assumed for nsRBNS): 25 mM Tris pH 7.5, 150 mM KCl, 3 mM MgCl2, 0.01% Triton X-100, 500 ug/ml BSA, 20 U/ml SUPERase-In, 4 C; UNK is unkempt and MSI1 is Musashi-1; names of the RNAs are library labels; protein concentration not given here; high values mean tight binding.
The molecule B1 yielded a binding signal of 0.422 enrichment R.

The molecule B2 yielded a binding signal of 2.04 enrichment R.

On to B3, for which the binding signal amounted to 0.438 enrichment R.

B4 came in with a binding signal of 2.22 enrichment R.

Regarding B5, the binding signal is 0.376 enrichment R.

B6 displayed a binding signal of 0.485 enrichment R.

The molecule B7 gave a binding signal of 1.3 enrichment R.

In turn, B8 returned a binding signal of 0.942 enrichment R.

Molecule B9 yielded a binding signal of 1.15 enrichment R.

The molecule B10 had a binding signal of 0.325 enrichment R.

Turning to B11, the binding signal is 0.935 enrichment R.

In the case of B12, the binding signal was 1.91 enrichment R.

B13: the binding signal was found to be 2.36 enrichment R.

B14 returned a binding signal of 1.01 enrichment R.

For the molecule B15, the binding signal came to 0.693 enrichment R.

B16 returned a binding signal of 0.812 enrichment R.

Regarding B17, the binding signal was determined as 1.79 enrichment R.

B18 gave a binding signal of 1.11 enrichment R.

The molecule B19 gave a binding signal of 0.588 enrichment R.

B20: the binding signal amounted to 0.925 enrichment R.

Consider B21, for which the binding signal was determined as 1.05 enrichment R.

B22 yielded a binding signal of 0.696 enrichment R.
